Results taken from publication PMC6410080 (Viruses, 2019).

Experiments:
HeLa Kyoto cells = conditions: MTT
[1] = system: clathrin-mediated uptake of transferrin; conditions: HeLa Kyoto, 10 μM, 10, 20 and 30 min

| Structure (SMILES) | TC50 SFV (7 h) (HeLa Kyoto cells) | Transferrin internalisation compared to DMSO controls [1] |
| --- | --- | --- |
| CC(C)(C)c1cc(C=C(C#N)C#N)cc(C(C)(C)C)c1O [Tyrphostin A9] | >50 µM | inhibit both virus and transferrin internalisation |
| CCCCc1oc2ccccc2c1C(=O)c1cc(I)c(OCCN(CC)CC)c(I)c1 [Amiodarone, Amiodarone hydrochloride] | 96.8 µM | – |

Where a name gives a salt, the structure may show the parent alone.
